From paper PMC4336329 (PLoS ONE, 2015)
Hit rate of the full screen: of about 310,000 compounds, about 14,000 (4.5%) showed an effect of 50% or more. The effect is printed as a negative number. The list shows a part of the results. Where a SMILES comes first, the peptide text is derived from it. The star is where a group is joined. PhAc = O=C(Cc1ccccc1)*; OBn = c1ccc(CO*)cc1
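Further: peak tail current of the secondary pulse compared with the same well before compound.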

These compounds were tested against human ether-à-go-go-related gene (hERG) potassium channel (human, UniProt Q12809) (assay: primary screen, population patch clamp on CHO cells stably expressing hERG).
Chain of human ether-à-go-go-related gene (hERG) potassium channel (Q12809 whole entry, looked up): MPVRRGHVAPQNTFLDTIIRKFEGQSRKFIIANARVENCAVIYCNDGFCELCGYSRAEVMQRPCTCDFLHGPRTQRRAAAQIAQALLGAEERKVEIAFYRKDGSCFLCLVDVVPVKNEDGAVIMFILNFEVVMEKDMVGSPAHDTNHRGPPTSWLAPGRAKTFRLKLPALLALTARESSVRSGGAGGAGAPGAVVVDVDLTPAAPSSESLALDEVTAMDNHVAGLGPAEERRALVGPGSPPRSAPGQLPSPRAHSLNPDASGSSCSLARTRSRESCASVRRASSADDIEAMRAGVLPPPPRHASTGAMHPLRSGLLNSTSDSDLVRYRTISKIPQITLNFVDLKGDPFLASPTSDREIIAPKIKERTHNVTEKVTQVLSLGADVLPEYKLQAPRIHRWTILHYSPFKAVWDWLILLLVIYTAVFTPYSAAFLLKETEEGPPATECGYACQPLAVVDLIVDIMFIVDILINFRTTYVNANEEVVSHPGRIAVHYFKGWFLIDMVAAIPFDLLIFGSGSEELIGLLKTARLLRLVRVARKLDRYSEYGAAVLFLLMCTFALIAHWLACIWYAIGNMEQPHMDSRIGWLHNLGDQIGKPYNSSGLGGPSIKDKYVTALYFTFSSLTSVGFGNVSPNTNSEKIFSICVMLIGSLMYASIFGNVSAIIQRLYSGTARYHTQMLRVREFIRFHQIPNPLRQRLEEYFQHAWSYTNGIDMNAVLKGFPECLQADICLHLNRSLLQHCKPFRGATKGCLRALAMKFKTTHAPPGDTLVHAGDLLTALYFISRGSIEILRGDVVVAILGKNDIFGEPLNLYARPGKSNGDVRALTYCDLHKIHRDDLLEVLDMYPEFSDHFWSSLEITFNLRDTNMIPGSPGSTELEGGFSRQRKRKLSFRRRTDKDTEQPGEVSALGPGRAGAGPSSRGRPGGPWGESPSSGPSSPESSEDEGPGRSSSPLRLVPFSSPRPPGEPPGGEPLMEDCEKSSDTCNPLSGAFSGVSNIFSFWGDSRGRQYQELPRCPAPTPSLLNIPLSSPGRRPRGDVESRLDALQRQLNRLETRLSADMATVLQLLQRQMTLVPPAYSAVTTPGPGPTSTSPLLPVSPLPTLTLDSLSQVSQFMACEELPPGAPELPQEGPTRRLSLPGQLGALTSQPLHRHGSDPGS
In the case of `CCc1cc2c(NC(Cc3ccccc3)C(=O)O)nc(C)nc2s1` (stereo not drawn), the “hERG current change (%, negative = inhibition) at 10uM” value is reported as 19.8%. For `CCCCn1nc(NC(=O)COC)c2cc3cc(OC)ccc3nc21`, the “hERG current change (%, negative = inhibition) at 10uM” value was -53.2%. `COCCN(C)C(=O)CC1C(=O)NCCN1CC(c1ccccc1)c1ccccc1` (stereo not drawn) was tested, and the “hERG current change (%, negative = inhibition) at 10uM” value was 14.7%. In the case of `O=C(N/C(C(=O)N1CCOCC1)=C(\Sc1ncccn1)c1ccccc1)c1ccccc1`, the “hERG current change (%, negative = inhibition) at 10uM” value is reported as -9.45%. With `CN(C)c1ccc(/C=N/NC(=O)c2cc(-c3ccc4c(c3)OCO4)n[nH]2)cc1` the “hERG current change (%, negative = inhibition) at 10uM” value was 0.899%. With `Cl.O=S(=O)(c1ccc(F)cc1)N1CCCNCC1` the “hERG current change (%, negative = inhibition) at 10uM” value was -1.34%. For `O=C(Cc1ccc([N+](=O)[O-])cc1)Nc1cc(C(F)(F)F)cc(C(F)(F)F)c1`, the “hERG current change (%, negative = inhibition) at 10uM” value was 12.2%. For `CCOC(=O)Cc1csc(NC(=O)c2cccc(OC)c2)n1`, the “hERG current change (%, negative = inhibition) at 10uM” value was 1.15%. For `Nc1ccc(S(=O)(=O)NC2(C(F)(F)F)NC(=O)N(c3ccc(F)cc3)C2=O)cc1` (stereo not drawn), the “hERG current change (%, negative = inhibition) at 10uM” value was 15.4%. With `O=C(N/N=C/c1ccccc1[N+](=O)[O-])C(=O)N1CCCC1` the “hERG current change (%, negative = inhibition) at 10uM” value was 20.4%. For `Cc1ccc(-n2cc(CN3CCCN(C=O)CC3)c(-c3ccc(F)cc3)n2)cc1`, the “hERG current change (%, negative = inhibition) at 10uM” value was -18.7%. With `N#CCCN1C(=O)C2(OCCO2)c2ccccc21` the “hERG current change (%, negative = inhibition) at 10uM” value was 17.9%. In the case of `O=C(CNS(=O)(=O)c1ccc(Br)cc1)N1CCOCC1`, the “hERG current change (%, negative = inhibition) at 10uM” value is reported as 10.1%. For `CN(C)CCCOc1ccc(Cl)cc1Br.O=C(O)C(=O)O`, the “hERG current change (%, negative = inhibition) at 10uM” value was -69.3%. `Cc1c(C)c2cc(Cl)c(OCC(=O)NCCCn3ccnc3)cc2oc1=O` was tested, and the “hERG current change (%, negative = inhibition) at 10uM” value was -2.59%. For `Cc1cccc(N2CCN(c3nc4nonc4nc3N3CCSCC3)CC2)n1`, the “hERG current change (%, negative = inhibition) at 10uM” value was 6.12%. In the case of `O=C1CC(c2ccc(Cl)c([N+](=O)[O-])c2)c2ccc3ccccc3c2N1` (stereo not drawn), the “hERG current change (%, negative = inhibition) at 10uM” value is reported as -20.7%. For `Cc1cc(C)nc(NCCCc2ccccc2)n1`, the “hERG current change (%, negative = inhibition) at 10uM” value was -10.7%. With `O=C(COC(=O)c1ccc(CO)cc1)Nc1ccc2ccccc2c1` the “hERG current change (%, negative = inhibition) at 10uM” value was 5.23%. For `CCN(Cc1ccccc1)S(=O)(=O)c1ccc2oc(C(=O)O)c(C)c2c1`, the “hERG current change (%, negative = inhibition) at 10uM” value was 7.64%. `O=C(CNC(=O)Cc1ccccc1)NCC(=O)OCc1ccccc1` (PhAc-Gly-Gly-OBn) was tested, and the “hERG current change (%, negative = inhibition) at 10uM” value was 12.4%. In the case of `CCCOC(=O)c1c(N)sc(C(=O)OCC)c1C`, the “hERG current change (%, negative = inhibition) at 10uM” value is reported as 6.34%. For `Cc1ccc2nc(NC(=O)COC(=O)CSc3nc(C)cc(C)n3)sc2c1`, the “hERG current change (%, negative = inhibition) at 10uM” value was -9.44%. For `Cc1ccc(N2CC(=O)Nc3c(oc4nc(-c5ccccc5)cc(C)c34)C2=O)cc1`, the “hERG current change (%, negative = inhibition) at 10uM” value was 5.08%.
